Laboratory results from PMC12820563, “FoxP3 forms a head-to-head dimer in vivo and stabilizes its multimerization on adjacent microsatellites”.
The list shows a part of the results.

What follows are sequences tested against T1, MBP-FoxP1dN (Mus musculus, UniProt P58462 326-579) (assay: PD-seq (MBP pull-down with sequencing); 20 mM Tris-HCl pH 7.5, 100 mM NaCl, 1.5 mM MgCl2, 0.4 uM protein, 0.1 uM dsDNA library, 30 min, room temperature, amylose pull-down; high values mean tight binding). Settings: protein: recombinant; tags: His6-MBP; chain copies: 2; dsDNA, one strand shown.
T1 sequence: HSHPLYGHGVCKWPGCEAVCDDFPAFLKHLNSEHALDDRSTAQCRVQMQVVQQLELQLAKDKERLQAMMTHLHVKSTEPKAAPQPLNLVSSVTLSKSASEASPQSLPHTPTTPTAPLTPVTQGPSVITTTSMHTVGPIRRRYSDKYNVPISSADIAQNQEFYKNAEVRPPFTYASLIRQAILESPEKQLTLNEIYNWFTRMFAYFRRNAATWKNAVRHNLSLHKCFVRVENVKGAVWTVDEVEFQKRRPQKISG
Summary of the method: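 The N-terminus-lacking fragment of mouse FoxP3 or FoxP1 carried a His6-MBP tag and was expressed in E. coli. At 0.4 µM it was incubated with 0.1 µM Klenow-filled degenerate double-stranded DNA library for 30 min at room temperature in Tris pH 7.5 buffer with NaCl and MgCl2, and complexes were caught on amylose resin, washed three times, released with proteinase K, PCR-barcoded and Illumina-sequenced. Binding is reads-per-million enrichment of pull-down over input with replicates pooled.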
“GATGATTGTTCTCCCAGCTGATGAATTCAAGGATTCGAGTAAACAAATTTTCCTAATCTTTCTGTTCAAGCGCCATCTAC” was tested, and the binding signal was 0.883 RPM ratio (pull-down/input). “GATGATTGTTCTCCCAGCTGATGAATTCTGAAGGTCGAGTAAACAAATTTTCCTAATCTTTCTGTTCAAGCGCCATCTAC” was tested, and the binding signal was 0.736 RPM ratio (pull-down/input). For “GATGATTGTTCTCCCAGCTGATGAATTAGCCCGATCGAGTAAACAAATTTTCCTAATCTTTCTGTTCAAGCGCCATCTAC”, the binding signal was 0.777 RPM ratio (pull-down/input). With “GATGATTGTTCTCCCAGCTGATGAATTTCAGTGGTCGAGTAAACAAATTTTCCTAATCTTTCTGTTCAAGCGCCATCTAC” the binding signal was 0.767 RPM ratio (pull-down/input). For “GATGATTGTTCTCCCAGCTGATGAATTTACTACCTCGAGTAAACAAATTTTCCTAATCTTTCTGTTCAAGCGCCATCTAC”, the binding signal was 1.25 RPM ratio (pull-down/input). For “GATGATTGTTCTCCCAGCTGATGAATTTCTCACCTCGAGTAAACAAATTTTCCTAATCTTTCTGTTCAAGCGCCATCTAC”, the binding signal was 0.872 RPM ratio (pull-down/input). “GATGATTGTTCTCCCAGCTGATGAATTACCAAACTCGAGTAAACAAATTTTCCTAATCTTTCTGTTCAAGCGCCATCTAC” was tested, and the binding signal was 1.1 RPM ratio (pull-down/input). In the case of “GATGATTGTTCTCCCAGCTGATGAATTGAAGGCTTCGAGTAAACAAATTTTCCTAATCTTTCTGTTCAAGCGCCATCTAC”, the binding signal is reported as 0.87 RPM ratio (pull-down/input). In the case of “GATGATTGTTCTCCCAGCTGATGAATTTTAAATATCGAGTAAACAAATTTTCCTAATCTTTCTGTTCAAGCGCCATCTAC”, the binding signal is reported as 1.15 RPM ratio (pull-down/input). In the case of “GATGATTGTTCTCCCAGCTGATGAATTATTGCCATCGAGTAAACAAATTTTCCTAATCTTTCTGTTCAAGCGCCATCTAC”, the binding signal is reported as 1.24 RPM ratio (pull-down/input). In the case of “GATGATTGTTCTCCCAGCTGATGAATTGCCTAGTTCGAGTAAACAAATTTTCCTAATCTTTCTGTTCAAGCGCCATCTAC”, the binding signal is reported as 0.959 RPM ratio (pull-down/input). For “GATGATTGTTCTCCCAGCTGATGAATTCGCCTGATCGAGTAAACAAATTTTCCTAATCTTTCTGTTCAAGCGCCATCTAC”, the binding signal was 0.834 RPM ratio (pull-down/input). For “GATGATTGTTCTCCCAGCTGATGAATTTACCTAGTCGAGTAAACAAATTTTCCTAATCTTTCTGTTCAAGCGCCATCTAC”, the binding signal was 1.19 RPM ratio (pull-down/input). For “GATGATTGTTCTCCCAGCTGATGAATTGGATTGCTCGAGTAAACAAATTTTCCTAATCTTTCTGTTCAAGCGCCATCTAC”, the binding signal was 0.916 RPM ratio (pull-down/input). With “GATGATTGTTCTCCCAGCTGATGAATTCTTTCCTTCGAGTAAACAAATTTTCCTAATCTTTCTGTTCAAGCGCCATCTAC” the binding signal was 0.851 RPM ratio (pull-down/input). In the case of “GATGATTGTTCTCCCAGCTGATGAATTCCAGTCGTCGAGTAAACAAATTTTCCTAATCTTTCTGTTCAAGCGCCATCTAC”, the binding signal is reported as 0.795 RPM ratio (pull-down/input). For “GATGATTGTTCTCCCAGCTGATGAATTCCGTGAATCGAGTAAACAAATTTTCCTAATCTTTCTGTTCAAGCGCCATCTAC”, the binding signal was 0.874 RPM ratio (pull-down/input). With “GATGATTGTTCTCCCAGCTGATGAATTAGTTGTTTCGAGTAAACAAATTTTCCTAATCTTTCTGTTCAAGCGCCATCTAC” the binding signal was 1.65 RPM ratio (pull-down/input). For “GATGATTGTTCTCCCAGCTGATGAATTACTAGATTCGAGTAAACAAATTTTCCTAATCTTTCTGTTCAAGCGCCATCTAC”, the binding signal was 1.03 RPM ratio (pull-down/input). For “GATGATTGTTCTCCCAGCTGATGAATTATTGAAATCGAGTAAACAAATTTTCCTAATCTTTCTGTTCAAGCGCCATCTAC”, the binding signal was 1.23 RPM ratio (pull-down/input). For “GATGATTGTTCTCCCAGCTGATGAATTAGTCCCATCGAGTAAACAAATTTTCCTAATCTTTCTGTTCAAGCGCCATCTAC”, the binding signal was 0.983 RPM ratio (pull-down/input). In the case of “GATGATTGTTCTCCCAGCTGATGAATTCTTCCGTTCGAGTAAACAAATTTTCCTAATCTTTCTGTTCAAGCGCCATCTAC”, the binding signal is reported as 0.866 RPM ratio (pull-down/input). With “GATGATTGTTCTCCCAGCTGATGAATTATACCGATCGAGTAAACAAATTTTCCTAATCTTTCTGTTCAAGCGCCATCTAC” the binding signal was 0.975 RPM ratio (pull-down/input). For “GATGATTGTTCTCCCAGCTGATGAATTTTAGAGCTCGAGTAAACAAATTTTCCTAATCTTTCTGTTCAAGCGCCATCTAC”, the binding signal was 0.77 RPM ratio (pull-down/input). “GATGATTGTTCTCCCAGCTGATGAATTCACTCAATCGAGTAAACAAATTTTCCTAATCTTTCTGTTCAAGCGCCATCTAC” was tested, and the binding signal was 0.995 RPM ratio (pull-down/input). In the case of “GATGATTGTTCTCCCAGCTGATGAATTACAGAAATCGAGTAAACAAATTTTCCTAATCTTTCTGTTCAAGCGCCATCTAC”, the binding signal is reported as 1.38 RPM ratio (pull-down/input). In the case of “GATGATTGTTCTCCCAGCTGATGAATTGGCTGCCTCGAGTAAACAAATTTTCCTAATCTTTCTGTTCAAGCGCCATCTAC”, the binding signal is reported as 0.876 RPM ratio (pull-down/input). For “GATGATTGTTCTCCCAGCTGATGAATTCTTTCAGTCGAGTAAACAAATTTTCCTAATCTTTCTGTTCAAGCGCCATCTAC”, the binding signal was 0.903 RPM ratio (pull-down/input). “GATGATTGTTCTCCCAGCTGATGAATTTCCGTCGTCGAGTAAACAAATTTTCCTAATCTTTCTGTTCAAGCGCCATCTAC” was tested, and the binding signal was 0.841 RPM ratio (pull-down/input). For “GATGATTGTTCTCCCAGCTGATGAATTTATAATGTCGAGTAAACAAATTTTCCTAATCTTTCTGTTCAAGCGCCATCTAC”, the binding signal was 1.25 RPM ratio (pull-down/input). With “GATGATTGTTCTCCCAGCTGATGAATTAAATTAATCGAGTAAACAAATTTTCCTAATCTTTCTGTTCAAGCGCCATCTAC” the binding signal was 1.01 RPM ratio (pull-down/input). With “GATGATTGTTCTCCCAGCTGATGAATTGATAGCTTCGAGTAAACAAATTTTCCTAATCTTTCTGTTCAAGCGCCATCTAC” the binding signal was 0.923 RPM ratio (pull-down/input). For “GATGATTGTTCTCCCAGCTGATGAATTTCCGCTATCGAGTAAACAAATTTTCCTAATCTTTCTGTTCAAGCGCCATCTAC”, the binding signal was 0.974 RPM ratio (pull-down/input). In the case of “GATGATTGTTCTCCCAGCTGATGAATTAGTCAACTCGAGTAAACAAATTTTCCTAATCTTTCTGTTCAAGCGCCATCTAC”, the binding signal is reported as 1.17 RPM ratio (pull-down/input). In the case of “GATGATTGTTCTCCCAGCTGATGAATTTGAAAGTTCGAGTAAACAAATTTTCCTAATCTTTCTGTTCAAGCGCCATCTAC”, the binding signal is reported as 0.892 RPM ratio (pull-down/input).
